Measured values: article PMC4336329 (PLoS ONE, 2015)
Hit rate of the full screen: of about 310,000 compounds, about 14,000 (4.5%) showed an effect of 50% or more. The effect is printed as a negative number. Some of the results follow.

Target: human ether-à-go-go-related gene (hERG) potassium channel (human, UniProt Q12809)
Experiment: primary screen, population patch clamp on CHO cells stably expressing hERG
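Also: peak tail current of the secondary pulse compared with the same well before compound.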

Chain of human ether-à-go-go-related gene (hERG) potassium channel (Q12809 whole entry, looked up): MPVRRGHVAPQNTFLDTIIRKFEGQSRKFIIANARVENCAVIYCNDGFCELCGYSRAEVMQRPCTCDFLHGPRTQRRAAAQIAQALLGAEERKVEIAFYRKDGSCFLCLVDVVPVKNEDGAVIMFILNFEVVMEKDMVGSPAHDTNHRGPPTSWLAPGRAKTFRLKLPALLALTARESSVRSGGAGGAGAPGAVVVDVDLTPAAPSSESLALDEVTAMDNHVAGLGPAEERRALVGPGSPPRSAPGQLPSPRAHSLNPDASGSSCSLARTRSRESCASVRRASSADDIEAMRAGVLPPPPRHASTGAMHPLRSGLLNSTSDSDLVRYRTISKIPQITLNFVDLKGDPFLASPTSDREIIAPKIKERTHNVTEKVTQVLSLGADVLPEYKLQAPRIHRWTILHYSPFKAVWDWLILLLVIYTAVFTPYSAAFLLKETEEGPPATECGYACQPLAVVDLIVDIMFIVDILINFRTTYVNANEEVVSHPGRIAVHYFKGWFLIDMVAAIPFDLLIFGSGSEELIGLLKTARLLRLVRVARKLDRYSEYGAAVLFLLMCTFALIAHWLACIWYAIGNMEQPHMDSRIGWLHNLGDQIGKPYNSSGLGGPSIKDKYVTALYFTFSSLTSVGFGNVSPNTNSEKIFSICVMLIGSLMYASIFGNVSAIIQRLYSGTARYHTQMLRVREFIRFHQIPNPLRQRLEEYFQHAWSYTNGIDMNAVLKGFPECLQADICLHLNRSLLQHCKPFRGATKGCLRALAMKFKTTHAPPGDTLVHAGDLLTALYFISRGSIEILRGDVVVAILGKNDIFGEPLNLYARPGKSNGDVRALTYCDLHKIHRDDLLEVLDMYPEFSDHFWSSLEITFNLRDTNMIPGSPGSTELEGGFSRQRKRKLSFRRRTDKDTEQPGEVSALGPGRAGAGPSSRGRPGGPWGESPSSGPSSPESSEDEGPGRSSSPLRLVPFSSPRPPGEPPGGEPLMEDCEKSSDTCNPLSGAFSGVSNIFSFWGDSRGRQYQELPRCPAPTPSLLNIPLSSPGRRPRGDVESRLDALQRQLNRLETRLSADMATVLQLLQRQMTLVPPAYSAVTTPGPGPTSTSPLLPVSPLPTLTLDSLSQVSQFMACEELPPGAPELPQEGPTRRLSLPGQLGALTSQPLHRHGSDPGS

Row | SMILES | hERG current change (%, negative = inhibition) at 10uM [%]
1 | O=C(O)CC/C(=N\Nc1ccc(S(=O)(=O)N2CCOCC2)cc1[N+](=O)[O-])c1cccs1 | 4.01
2 | O=C1C=C(N(CCO)CCO)C2(CCCCC2)O1 | 0.946
3 | O=C(CCNS(=O)(=O)c1ccccc1)N1CCN(c2ccccc2F)CC1 | -26.8
4 | Cc1ccc(C)c(NC(=S)NCCc2ccc(S(N)(=O)=O)cc2)c1 | -5.97
5 | CCOc1ccccc1-c1nc(CN2CCC(C(=O)N3CCOCC3)CC2)c(C)o1 | -5.13
6 | O=C(CSc1ccccc1C(=O)O)Nc1cccc(C(=O)O)c1 | 6.88
7 | CC(=O)c1sc(NC(=O)CCN2C(=O)c3ccccc3C2=O)nc1C | 10.6
8 | Cc1cc(N/C=C/C(=O)c2ccc(Br)cc2)no1 | 0.138
9 | COc1ccc(CNC(=O)C2CCN(c3nc(OC)nc(OC)n3)CC2)cc1 | -65.1
10 | COc1cccc(NC(=O)CN(C)C(=O)c2cc(C)on2)c1 | 9.91
11 | CC(C)(C)NC(=O)CCN(/N=C/c1ccccc1)C1=NS(=O)(=O)c2ccccc21 | 4.51
12 | CC(NC(=O)c1ccc(CS(=O)(=O)c2ccc(Cl)cc2)o1)c1ccc2c(c1)OCCO2 (stereo not drawn) | -18.9
13 | O=C1c2ccccc2NC(c2ccc(-c3cccc([N+](=O)[O-])c3)o2)N1O (stereo not drawn) | -18.6
14 | COc1ccc(C)cc1S(=O)(=O)n1cnc(C)c1 | 21.3
15 | OC1CCCN(Cc2cn(Cc3ccccc3)nc2-c2cc3ccccc3o2)C1 (stereo not drawn) | -44.7
16 | CCc1ccccc1NC(=O)CSc1nnc(C2CC2)n1CC1CCCO1 (stereo not drawn) | 3.72
17 | COc1ccc2oc(=O)cc(CN(C)Cc3ccccc3)c2c1 | -11.5
18 | O=C(CCSc1ccc(Cl)cc1)N1CCN(c2ncccn2)CC1 | -60.6
19 | CCCc1cc(=O)[nH]c(SCC(=O)c2cc(C)n(CCOC)c2C)n1 | 5.72
20 | CCCSc1cc(N2CCOCC2)nc(-c2ccccc2Cl)n1 | -1.91
21 | COc1ccc(NC(=O)c2ccc3[nH]c(C)c(C)c3c2)c(OC)c1 | 12.8
22 | Cc1ccc(OCC(=O)Nc2ccccc2F)cc1C | 23.6

Row | SMILES | hERG current change (%, negative = inhibition) at 10uM [%]
23 | CCOC(=O)c1ccc(S(=O)(=O)N(CCO)Cc2cc3cc(OC)c(OC)cc3[nH]c2=O)cc1 | 6.66
24 | CCOC(=O)c1cccc(Nc2nc(C)cc(C)n2)c1 | 10.7
25 | CCOC(=O)C1=C(CC)Nc2ccccc2N/C1=N\S(=O)(=O)c1ccccc1OC | 13.7
26 | Cc1cc(Nc2ccccc2)c2c([N+](=O)[O-])ccc(C)c2n1 | -24.7
27 | COc1ccc(OC)c(NP(=O)(Oc2ccccc2)Oc2ccccc2)c1 | 0.409
28 | CC(C)(C)c1nnc(NC(=O)C2CC(=O)N(CCc3ccc(F)cc3)C2)s1 (stereo not drawn) | 1.33
29 | CCOC(=O)C(=O)Nc1nc(-c2ccccc2)c(-c2ccccc2)o1 | -32.1
30 | COc1ccc(CNc2nc3c(c(=O)[nH]c(=O)n3C)n2Cc2ccccc2C)cc1 | 4.58
31 | O=C(COCc1cc(-c2ccc3c(c2)OCO3)on1)N1CCN(c2cccc(Cl)c2)CC1 | 9.68
32 | CCOCCCN(C)C1CCN(C(=O)c2oc3ccccc3c2NC(=O)Cc2ccc([N+](=O)[O-])cc2)CC1 | -81.5
33 | CCc1ccc2oc(=O)cc(CN3CCN(c4ccc(F)cc4)CC3)c2c1 | -10.1
34 | O=C(Cc1ccccc1)NNC(=O)Nc1ccccc1 | 14.7
35 | CCCn1nc(NC(=O)c2ccco2)c2cc3ccc(C)cc3nc21 | 5.09
36 | COc1ccc2cc(-c3[nH]ncc3CN3CCCCO3)ccc2c1 | 6.99
37 | O=C(O)C1C2CCC(C2)C1C(=O)Nc1ccccc1 (stereo not drawn) | 0.942
38 | COc1ccc(CN(Cc2ccccn2)S(=O)(=O)c2ccc(-n3cnnn3)c(OC)c2)cc1 | -47.2
39 | Cc1ccc(C2=NN(C(=O)CCC(=O)O)C(c3ccc4c(c3)OCO4)C2)cc1 (stereo not drawn) | -2.17
40 | COc1cccc(/C=N/NC(=O)CCn2c3ccccc3c3ccccc32)c1 | 7.54
41 | Cc1cnc(C(=O)OCC(=O)NCCCc2ccccc2)cn1 | 19.7
42 | O=C(/C=C/c1ccco1)N1CCN(S(=O)(=O)c2cccs2)CC1 | -7.4
43 | CCCCCC(=O)N1CCN(S(=O)(=O)c2ccc3c(c2)OCCO3)CC1 | -61
44 | COc1ccc(/C=C2\CCCC(C(=O)C(F)(F)F)=C2O)cc1OC | 21.2

Row | SMILES | hERG current change (%, negative = inhibition) at 10uM [%]
45 | COc1ccc(C(=O)Nc2ccc(C(=O)N3CCC(C)CC3)cc2)cc1OC | 1.42
46 | CC12CCC(C(=O)N(CCCN3CCN(Cc4ccccc4)CC3)C1=O)C2(C)C.Cl (stereo not drawn) | -6.77
47 | O=C(CN1CCOCC1)Nc1ncc(Cc2cccc(Cl)c2)s1 | -43
48 | CC1(C)CC(NC(=O)c2ccccc2Cl)CC(C)(C)N1.Cl | -4.71
49 | CCC(C(=O)Nc1cc(Cl)c(OC)cc1OC)c1ccccc1 (stereo not drawn) | 37.3
50 | O=C(CCCN1C(=O)c2cccnc2Oc2ccc(Cl)cc21)N1CCCCC1 | -9.27
51 | CN(C)c1ccc(C(=O)NCC(c2cccs2)N2CCOCC2)cc1[N+](=O)[O-] (stereo not drawn) | -7.74
52 | O=C(c1ccc(Br)cc1)N1CCC(C(=O)N2CCN(Cc3ccccc3)CC2)CC1 | -60.1
53 | Fc1cccc(Cc2noc(CN3CCCCC3CCc3ccccn3)n2)c1 (stereo not drawn) | 0.789
54 | N#C/C(=N\Nc1ccc([N+](=O)[O-])cc1)C(=N)N1CCOCC1 | -54.2
55 | Cc1ccccc1C(=O)N1CCC(C(=O)NC2CCCC2)CC1 | 17.2
56 | Fc1cccc(-n2c(-c3cccs3)nc3nc4ccccc4nc32)c1 | 5.14
57 | COc1cccc(-c2ccc(SCC(=O)N3CCOCC3)nn2)c1 | -0.256
58 | C=CCSc1nc2c(cnn2-c2ccccc2)c(=O)n1N | -21.9
59 | COc1ccc(S(=O)(=O)N2CCOC2CNC(=O)C(=O)NCCc2ccc(OC)c(OC)c2)cc1C (stereo not drawn) | -10.9
60 | Cc1nc(C(=O)NC2CC2)sc1C1(C)CC(c2cccc([N+](=O)[O-])c2)=NO1 (stereo not drawn) | -41
61 | CC(=O)c1ccc(S(=O)(=O)N2CCN(CC(=O)NC(=O)NC3CCCCC3)CC2)cc1 | -16.8
62 | COc1ccc(OC)c(-c2csc(NC(=O)COC(=O)C3CCC3)n2)c1 | 1.93
63 | Cc1cc(C)n2nc(C(=O)OCC(=O)c3cc(C)n(C)c3C)nc2n1 | -3.7
64 | Cc1ccc(NC(=O)c2ccc(Cl)cc2[N+](=O)[O-])nc1 | 6.4
65 | CCCn1c(C(=O)c2ccccc2)nc2ccccc21 | -3.79
66 | CCc1cccc(NC(=O)Cn2c(-c3ccccc3)cc(C(C)=O)c2C)c1 | 11.9

Row | SMILES | hERG current change (%, negative = inhibition) at 10uM [%]
67 | COc1ccc(C2C(C#N)=C(/N=C/N3CCN(C)CC3)OC3=C2C(=O)CC(C)(C)C3)cc1 (stereo not drawn) | -16.1
68 | COc1cc(C2C(C#N)=C(N)Oc3cc(C)n(CCN4CCOCC4)c(=O)c32)cc(OC)c1OC (stereo not drawn) | 20.7
69 | O=C(c1ccccc1)c1cc2ccccc2oc1=O | 1.38
70 | CCc1ccc(Nc2ccc3nonc3c2[N+](=O)[O-])cc1 | -5.54
71 | CC(=O)Nc1cccc(-n2nnc(SCC(N)=O)n2)c1 | 5.88
72 | Cn1c(-c2ccccc2)cnc1SCc1nc2ccccc2c(=O)[nH]1 | -59.9
73 | COc1ccc(NC(=O)c2cccc3c2C(=O)N(C2CCCCC2)C3)cc1 | 18.2
74 | Cc1ccccc1Nc1nc(N)nc(CSc2ccc(F)cc2)n1 | -50.4
75 | COc1ccc(N2C(=O)CCC(C(=O)N3CCC(C(N)=O)CC3)C2c2ccc(F)cc2)cc1 (stereo not drawn) | -2.18
76 | CC(=O)Nc1ccc(NC2=CC(=O)c3ccccc3C2=O)cc1 | 11.6
77 | COc1cccc(C(=O)C2CCCN(CC3=Cc4cc(OC)ccc4OC3)C2)c1 (stereo not drawn) | -56.6
78 | CC1(CCCN2C(=O)c3ccccc3C2=O)OCCO1 | 16.6
79 | CC1=C(C)CC(C(=O)Nc2ccc(C(=O)N3CCOCC3)cc2)C(C(=O)O)C1 (stereo not drawn) | 28.6
80 | Cc1ccc(C(=O)/C=C/N(C)C)cn1 | 30.9
81 | CCOC(=O)c1sc(NC(=O)COc2ncnc3ccccc23)c(C(=O)OCC)c1C | -4.52
82 | CC(=O)N1CCN=C1SCc1ccccc1 | 19.1
83 | COc1ccc(N2CCN(S(=O)(=O)c3cccc4cccnc34)CC2)cc1 | -21.8
84 | CCCn1cc(CN2CCCC(CNC(=O)c3ccc(F)cc3)C2)c(C)n1 (stereo not drawn) | -25.5
85 | CCNC(=O)CC1SC(=Nc2ccc(C)cc2)N(CC)C1=O (stereo not drawn) | 8.86
86 | COC(C[C@@H]1O[C@@H]1C(=O)[C@H](C)OCc1ccccc1)OC | 5.62
87 | NC(=O)c1cc(S(=O)(=O)NCc2cccc(Br)c2)cs1 | -25.6
